Assay results reported in PubChem BioAssay AID651820 (National Center for Advancing Translational Sciences (NCATS), 2012).
Among all 340,000 compounds or so, about 12,000 (3.5%) were called active. Inconclusive results, whose numbers are uncertain, are shown with a selection of clear calls. The call rests on the fitted dose curve; in most records, active means well fitted inhibition curve with a large enough effect; inconclusive means small, poorly fitted or top-dose-only effect, or another doubt; inactive means no such curve, though single readings can be large or run the other way. Potencies of inconclusive entries are left out as doubtful fits. Some compounds were tested as several samples or in several runs, with calls that do not always agree.

Assay: qHTS Assay for Inhibitors of Hepatitis C Virus (HCV)
Details: Huh7.5.1 HCVcc-Cre (HCVcc is cell-culture hepatitis C virus) infection, luciferase reporter, 44 h; series mostly up to 41.8 µM
Method in brief: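 A cell-based infection assay in which seeded cells (1,000 per well) receive test compound after 4 h, are inoculated with HCVcc-Cre at approximately 0.5 moi, and are incubated 44 h before luminescence detection.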
Potency means the concentration at half of the fitted maximal effect; tags describe the fitted curve by direction and shape.

| Compound | Potency |
| --- | --- |
| CCN(CC)CCCC1(CN)OCCc2ccccc21 (stereo not drawn) | inconclusive [inhibitor, full curve, poor fit] |
| COc1ccc(/C=N/c2oc(-c3ccccc3)cc2C#N)cc1 | inconclusive [inhibitor, single point] |
| CCN1CCN(CCCNC(=O)c2ccc3c(c2)NC(=O)/C(=C\c2cccc(C)c2)S3)CC1 | active: 1.78 µM |
| COc1cc(CNC2CCCC2)cc(Cl)c1OCc1ccccc1F | active: 10 µM |
| CCOC(=O)c1nc(Nc2cc(Cl)ccc2OC)c2ccccc2n1 | active: 12.6 µM |
| O=C1c2ccccc2OC2(C=Cc3ccccc3O2)N1Cc1ccccc1 (stereo not drawn) | inconclusive [inhibitor, full curve] |
| COc1cc(NC(=O)Cn2ncc(Cl)c(Cl)c2=O)c(C)cc1[N+](=O)[O-] | inconclusive [inhibitor, single point] |
| O=C(CSc1nc2nccnc2c(=O)n1Cc1cccs1)Nc1ccccc1F | inconclusive [inhibitor, partial curve] |
| C/C(N)=C(/C#N)C(=O)COC(=O)c1cc(-c2ccc(Br)cc2)nc2ccccc12 | active: 10 µM |
| N#CCCn1cc(C(=O)Nc2ccccc2Br)c(-c2cc3ccccc3o2)n1 | inconclusive [inhibitor, single point] |
| COc1cc(NC(=O)c2ccccc2)c(OC)cc1NC(=O)Cc1cccs1 | inconclusive [inhibitor, full curve] |
| O=C(OCc1cc([N+](=O)[O-])cc2c1OCOC2)c1cccnc1SC(F)F | active: 1 µM |
| CCC(=O)Nc1cccc(-c2nnc(SCC(=O)NCc3ccco3)n2C)c1 | inactive |
| COc1cc(OC)c(NC(=O)c2cc3ccccc3cc2O)cc1Cl | active: 31.6 µM |
| CN(C)CCN(C(=O)CN1C(=O)c2ccccc2C1=O)c1nc2cc3c(cc2s1)OCCO3 | inactive |
| O=C(NCc1ccc(Cl)cc1)C1CCN(S(=O)(=O)c2ccc(N3CCCC3=O)cc2)CC1 | active: 11.2 µM |
| CC(/C=C/c1ccco1)=N/NC(=O)c1ccc(C)nc1 | inactive |
| Cc1nc2sccn2c(=O)c1CCN1CCC(=C(c2ccc(F)cc2)c2ccc(F)cc2)CC1 | active: 3.55 µM |
| CC1CCCCN1S(=O)(=O)c1ccc(C(=O)Nc2ccccc2-c2nc3ccccc3[nH]2)cc1 (stereo not drawn) | inconclusive [inhibitor, full curve] |
| Cc1cccc(C(=O)OCC(=O)N2CCCCCC2)c1C | inconclusive [inhibitor, single point] |
| CSc1ncccc1C(=O)OCC(=O)N(CC(C)C)c1c(N)n(Cc2ccccc2)c(=O)[nH]c1=O | inactive |
| Cc1ccc(-c2nc(NC(=O)c3ccc(S(=O)(=O)N(CCC#N)CCC#N)cc3)sc2-c2ccccc2)cc1 | inactive |
| O=C(NCc1nnc(SCC(=O)N2CCN(c3ccccc3)CC2)o1)c1c(F)cccc1Cl | inactive |
| NC(=O)C1CCN(C(=O)C2CCC(=O)N(Cc3ccc(Cl)cc3)C2)CC1 (stereo not drawn) | inactive |
| O=C(CSc1ccccc1)Nc1ccc(Cl)c(S(=O)(=O)N2CCOCC2)c1 | inconclusive [inhibitor, single point] |

| Compound | Potency |
| --- | --- |
| Cc1cccc(NC(=O)Cn2c(=O)n(CCC(=O)NC3CCCC3)c(=O)c3ccccc32)c1 | inactive |
| COC(=O)c1cccc(NC(=O)Nc2ccc(Cl)cc2Cl)c1 | inconclusive [inhibitor, single point] |
| COc1ccc(Cl)cc1NC(=O)COc1cccc(-n2cnnn2)c1 | inconclusive [inhibitor, partial curve] |
| Cc1occc1C(=O)Nc1ccc2c(c1)CCC2 | inconclusive [inhibitor, single point] |
| O=C(NCc1ccco1)C1CCCN(S(=O)(=O)c2cccc3nonc23)C1 (stereo not drawn) | inconclusive [inhibitor, single point] |
| Cc1cccc(N(C(=O)Cn2nnc3ccccc32)C(C(=O)NC(C)(C)C)c2ccsc2)c1C (stereo not drawn) | inactive |
| CCOc1cc(N2CCOCC2)c(OCC)cc1NC(=O)C1CC(=O)N(c2ccccc2OCC)C1 (stereo not drawn) | inconclusive [inhibitor, single point] |
| O=C(O)CCCC(=O)Nc1cccc(C(F)(F)F)c1 | inactive |
| COc1ccc(NCc2nc3ccccc3n2CCOc2ccccc2)cc1 | inconclusive [inhibitor, single point] |
| Cc1c(C)c2c(OCC(=O)N[C@@H](C(=O)O)c3ccccc3)cc3c(c2oc1=O)CCC(C)(C)O3 | inconclusive [inhibitor, single point] |
| C=C(CN(C)C)C(=O)c1cc(C)ccc1C | inconclusive [inhibitor, full curve] |
| O=C(Nc1ccccc1N1CCN(C(=O)c2ccc(Cl)cc2)CC1)c1ccc2c(c1)OCO2 | inconclusive [inhibitor, partial curve] |
| O=[N+]([O-])c1ccc(OCn2cncn2)cc1 | inactive |
| CCOc1ccc(-c2cnc3ccccc3n2)cc1 | inconclusive [inhibitor, single point] |
| COc1ccc(Cn2nnc3c(=O)[nH]c(C4CCCN(C(=O)c5ccccc5)C4)nc32)cc1 (stereo not drawn) | inconclusive [inhibitor, single point] |
| CCN(C(=O)c1ccc(Cl)c(S(=O)(=O)Nc2c(C)n(C)n(-c3ccccc3)c2=O)c1)c1ccccc1 | inactive |
| O=S(=O)(Nc1cccc2cccnc12)c1ccccc1 | inconclusive [inhibitor, single point] |
| CCOc1ccc(C(=O)NC(C)C2COc3ccccc3O2)cc1 (stereo not drawn) | inactive |
| Nc1ccc(N2CCOCC2)c(S(=O)(=O)Nc2ccccc2Cl)c1 | inactive |
| Cc1ccc(-c2nn(CC(=O)NCc3ccco3)c(=O)c3ccccc23)cc1 | inconclusive [inhibitor, single point] |
| O=C(COc1ccc(S(=O)(=O)N2CCOCC2)cc1)N1CCN(Cc2ccc3c(c2)OCO3)CC1 | inconclusive [inhibitor, full curve] |
| CC(C)c1nc(SCC(=O)N2CC(=O)Nc3ccccc32)c2ccccc2n1 | inconclusive [inhibitor, single point] |
| COc1ccc(OC)c(CCNC(=O)C2CCN(c3ncnc4c3nc3n4CCCCC3)CC2)c1 | inactive |
| CCCn1c2c(c(O)c(C(=O)Nc3ccc(OC)cc3)c1=O)CCCC2 | active: 11.2 µM |
| COc1ccccc1C(=O)Oc1ccccc1C(=O)Nc1ccccc1 | inactive |

| Compound | Potency |
| --- | --- |
| Cc1cc(NC(=O)c2ccc(F)cc2)no1 | inactive |
| CCOC(=O)c1c(NC(=O)CSc2n[nH]c(-c3ccco3)n2)sc(C)c1C | inconclusive [inhibitor, full curve, poor fit] |
| CCCCNS(=O)(=O)c1ccc(NC(=O)Cc2ccc(OC)cc2)cc1 | inconclusive [inhibitor, single point] |
| C=CCNC(=O)c1ccccc1NC(=O)c1ccccc1SC | inconclusive [inhibitor, single point] |
| CC(C)(C)C1CCc2c(sc(NC(=O)C3CCCO3)c2C(N)=O)C1 (stereo not drawn) | inconclusive [inhibitor, partial curve] |
| O=C(Nc1nc2ccc(Cl)cc2s1)c1ccc(Br)o1 | inactive |
| O=C(CCCc1ccccc1)Nc1nnc(C(F)(F)F)s1 | inactive |
| COCCNC(=S)N1CCN(c2nc(-c3ccc(F)cc3)cs2)CC1 | inconclusive [inhibitor, partial curve] |
| CCCc1c(C(=O)N/N=C/c2c(OC)ccc3ccccc23)nnn1-c1nonc1N | inconclusive [inhibitor, partial curve] |
| O=C(COc1cccnc1[N+](=O)[O-])N1CCC(Cc2ccccc2)CC1 | inactive |
| Cc1ccc(NC(=O)c2ccc3c(c2)C(=O)N(c2cc(C)ccc2C)C3=O)nc1 | inactive |
| CCCOc1ccccc1/C=N/NC(=O)C1CC1 | inconclusive [inhibitor, single point] |
| O=C(Nc1ccc2c(c1)CCCN2C(=O)c1cccs1)c1c(F)cccc1F | inconclusive [inhibitor, single point] |
| COc1ccc(-c2noc(CSc3nnc(-c4ccncc4)n3-c3ccc(F)cc3)n2)cc1OC | inconclusive [inhibitor, partial curve] |
| COc1ccc(CNC(=O)C2CCC(CNS(=O)(=O)c3ccccc3)CC2)cc1 (stereo not drawn) | inconclusive [inhibitor, single point] |
| CC(C)CNC(=S)N1CCC(C(=O)c2ccc(F)cc2)CC1 | inconclusive [inhibitor, partial curve] |
| CCC1CCCCN1CCCn1c(=S)[nH]c2ccccc2c1=O (stereo not drawn) | inactive |
| CCC(=O)Nc1ccc(Cl)c(NC(=S)NC(=O)c2cc3ccccc3o2)c1 | inconclusive [inhibitor, single point] |
| CCc1ccc(N(C(C)=O)C2C=CS(=O)(=O)C2)cc1 (stereo not drawn) | inconclusive [inhibitor, single point] |
| Cc1nc2cc(C(=O)N3CCC4(CC3)OCCO4)ccc2n1-c1ccc(Br)cc1 | inactive |
| COc1cccc(OP(=O)(Nc2ccccc2)Oc2cccc(OC)c2)c1 | inconclusive [inhibitor, single point] |
| C[n+]1ccccc1/C=C/c1c(F)cccc1F | inconclusive [inhibitor, full curve] |
| CCOC(=O)c1nnn(-c2nonc2N)c1COc1cc(C)c(Cl)c(C)c1 | inconclusive [inhibitor, partial curve, poor fit] |
